The other results are listed elsewhere or left out. Binding of human transcription factors and regulators to the viral nucleoprotein by AlphaScreen, crude cell-free proteins, amounts not normalised, one pass. Fold of the Venus control; higher = more signal. No active / inactive call. Single-pass screen; sequences are the whole Swiss-Prot entries looked up by name.
B1: GTF2H4, Q92759 (protein)
chain: MESTPSRGLNRVHLQCRNLQEFLGGLSPGVLDRLYGHPATCLAVFRELPSLAKNWVMRMLFLEQPLPQAAVALWVKKEFSKAQEESTGLLSGLRIWHTQLLPGGLQGLILNPIFRQNLRIALLGGGKAWSDDTSQLGPDKHARDVPSLDKYAEERWEVVLHFMVGSPSAAVSQDLAQLLSQAGLMKSTEPGEPPCITSAGFQFLLLDTPAQLWYFMLQYLQTAQSRGMDLVEILSFLFQLSFSTLGKDYSVEGMSDSLLNFLQHLREFGLVFQRKRKSRRYYPTRLAINLSSGVSGAGGTVHQPGFIVVETNYRLYAYTESELQIALIALFSEMLYRFPNMVVAQVTRESVQQAIASGITAQQIIHFLRTRAHPVMLKQTPVLPPTITDQIRLWELERDRLRFTEGVLYNQFLSQVDFELLLAHARELGVLVFENSAKRLMVVTPAGHSDVKRFWKRQKHSS
B2: RXRG, P48443 (protein)
chain: MYGNYSHFMKFPAGYGGSPGHTGSTSMSPSAALSTGKPMDSHPSYTDTPVSAPRTLSAVGTPLNALGSPYRVITSAMGPPSGALAAPPGINLVAPPSSQLNVVNSVSSSEDIKPLPGLPGIGNMNYPSTSPGSLVKHICAICGDRSSGKHYGVYSCEGCKGFFKRTIRKDLIYTCRDNKDCLIDKRQRNRCQYCRYQKCLVMGMKREAVQEERQRSRERAESEAECATSGHEDMPVERILEAELAVEPKTESYGDMNMENSTNDPVTNICHAADKQLFTLVEWAKRIPHFSDLTLEDQVILLRAGWNELLIASFSHRSVSVQDGILLATGLHVHRSSAHSAGVGSIFDRVLTELVSKMKDMQMDKSELGCLRAIVLFNPDAKGLSNPSEVETLREKVYATLEAYTKQKYPEQPGRFAKLLLRLPALRSIGLKCLEHLFFFKLIGDTPIDTFLMEMLETPLQIT
B3: SNAPC5, O75971 (protein)
chain: MLSRLQELRKEEETLLRLKAALHDQLNRLKVEELALQSMISSRRGDEMLSSHTVPEQSHDMLVHVDNEASINQTTLELSTKSHVTEEEEEEEEEESDS
B4: FOXP1, Q9H334 (protein)
chain: MMQESGTETKSNGSAIQNGSGGSNHLLECGGLREGRSNGETPAVDIGAADLAHAQQQQQQALQVARQLLLQQQQQQQVSGLKSPKRNDKQPALQVPVSVAMMTPQVITPQQMQQILQQQVLSPQQLQVLLQQQQALMLQQQQLQEFYKKQQEQLQLQLLQQQHAGKQPKEQQQVATQQLAFQQQLLQMQQLQQQHLLSLQRQGLLTIQPGQPALPLQPLAQGMIPTELQQLWKEVTSAHTAEETTGNNHSSLDLTTTCVSSSAPSKTSLIMNPHASTNGQLSVHTPKRESLSHEEHPHSHPLYGHGVCKWPGCEAVCEDFQSFLKHLNSEHALDDRSTAQCRVQMQVVQQLELQLAKDKERLQAMMTHLHVKSTEPKAAPQPLNLVSSVTLSKSASEASPQSLPHTPTTPTAPLTPVTQGPSVITTTSMHTVGPIRRRYSDKYNVPISSADIAQNQEFYKNAEVRPPFTYASLIRQAILESPEKQLTLNEIYNWFTRMFAYFRRNAATWKNAVRHNLSLHKCFVRVENVKGAVWTVDEVEFQKRRPQKISGNPSLIKNMQSSHAYCTPLNAALQASMAENSIPLYTTASMGNPTLGNLASAIREELNGAMEHTNSNESDSSPGRSPMQAVHPVHVKEEPLDPEEAEGPLSLVTTANHSPDFDHDRDYEDEPVNEDME
B5: NR3C1, P04150 (protein)
chain: MDSKESLTPGREENPSSVLAQERGDVMDFYKTLRGGATVKVSASSPSLAVASQSDSKQRRLLVDFPKGSVSNAQQPDLSKAVSLSMGLYMGETETKVMGNDLGFPQQGQISLSSGETDLKLLEESIANLNRSTSVPENPKSSASTAVSAAPTEKEFPKTHSDVSSEQQHLKGQTGTNGGNVKLYTTDQSTFDILQDLEFSSGSPGKETNESPWRSDLLIDENCLLSPLAGEDDSFLLEGNSNEDCKPLILPDTKPKIKDNGDLVLSSPSNVTLPQVKTEKEDFIELCTPGVIKQEKLGTVYCQASFPGANIIGNKMSAISVHGVSTSGGQMYHYDMNTASLSQQQDQKPIFNVIPPIPVGSENWNRCQGSGDDNLTSLGTLNFPGRTVFSNGYSSPSMRPDVSSPPSSSSTATTGPPPKLCLVCSDEASGCHYGVLTCGSCKVFFKRAVEGQHNYLCAGRNDCIIDKIRRKNCPACRYRKCLQAGMNLEARKTKKKIKGIQQATTGVSQETSENPGNKTIVPATLPQLTPTLVSLLEVIEPEVLYAGYDSSVPDSTWRIMTTLNMLGGRQVIAAVKWAKAIPGFRNLHLDDQMTLLQYSWMFLMAFALGWRSYRQSSANLLCFAPDLIINEQRMTLPCMYDQCKHMLYVSSELHRLQVSYEEYLCMKTLLLLSSVPKDGLKSQELFDEIRMTYIKELGKAIVKREGNSSQNWQRFYQLTKLLDSMHEVVENLLNYCFQTFLDKTMSIEFPEMLAEIITNQIPKYSNGNIKKLLFHQK
B6: CTCF, P49711 (protein)
chain: MEGDAVEAIVEESETFIKGKERKTYQRRREGGQEEDACHLPQNQTDGGEVVQDVNSSVQMVMMEQLDPTLLQMKTEVMEGTVAPEAEAAVDDTQIITLQVVNMEEQPINIGELQLVQVPVPVTVPVATTSVEELQGAYENEVSKEGLAESEPMICHTLPLPEGFQVVKVGANGEVETLEQGELPPQEDPSWQKDPDYQPPAKKTKKTKKSKLRYTEEGKDVDVSVYDFEEEQQEGLLSEVNAEKVVGNMKPPKPTKIKKKGVKKTFQCELCSYTCPRRSNLDRHMKSHTDERPHKCHLCGRAFRTVTLLRNHLNTHTGTRPHKCPDCDMAFVTSGELVRHRRYKHTHEKPFKCSMCDYASVEVSKLKRHIRSHTGERPFQCSLCSYASRDTYKLKRHMRTHSGEKPYECYICHARFTQSGTMKMHILQKHTENVAKFHCPHCDTVIARKSDLGVHLRKQHSYIEQGKKCRYCDAVFHERYALIQHQKSHKNEKRFKCDQCDYACRQERHMIMHKRTHTGEKPYACSHCDKTFRQKQLLDMHFKRYHDPNFVPAAFVCSKCGKTFTRRNTMARHADNCAGPDGVEGENGGETKKSKRGRKRKMRSKKEDSSDSENAEPDLDDNEDEEEPAVEIEPEPEPQPVTPAPPPAKKRRGRPPGRTNQPKQNQPTAIIQVEDQNTGAIENIIVEVKKEPDAEPAEGEEEEAQPAATDAPNGDLTPEMILSMMDR

target: nucleoprotein N of Crimean-Congo hemorrhagic fever virus; experiment: AlphaScreen luminescence signal relative to Venus negative control (fold); higher = stronger binding to CCHFV N
Procedure: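 AlphaScreen binding of cell-free made, FLAG-GST-tagged human transcription factors and regulators (crude translation products) to biotinylated N protein; signal as fold of the FLAG-GST-Venus control. One pass.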

Row | Binder | AlphaScreen luminescence signal
1 | B1 | 2.6
2 | B2 | 1.49
3 | B3 | 1.16
4 | B4 | 2.74
5 | B5 | 1.77
6 | B6 | 1.91
